# Experimental data as given in the supplement of paper PMC3334620.
# Over roughly 33,000 sequences, “E-score (-0.5 to 0.5)” has its median near -0.054; the highest 2% begin near 0.35. This is one part of the list.
# Biological target: T1, Stb5 (UniProt P38699)
# T1 sequence: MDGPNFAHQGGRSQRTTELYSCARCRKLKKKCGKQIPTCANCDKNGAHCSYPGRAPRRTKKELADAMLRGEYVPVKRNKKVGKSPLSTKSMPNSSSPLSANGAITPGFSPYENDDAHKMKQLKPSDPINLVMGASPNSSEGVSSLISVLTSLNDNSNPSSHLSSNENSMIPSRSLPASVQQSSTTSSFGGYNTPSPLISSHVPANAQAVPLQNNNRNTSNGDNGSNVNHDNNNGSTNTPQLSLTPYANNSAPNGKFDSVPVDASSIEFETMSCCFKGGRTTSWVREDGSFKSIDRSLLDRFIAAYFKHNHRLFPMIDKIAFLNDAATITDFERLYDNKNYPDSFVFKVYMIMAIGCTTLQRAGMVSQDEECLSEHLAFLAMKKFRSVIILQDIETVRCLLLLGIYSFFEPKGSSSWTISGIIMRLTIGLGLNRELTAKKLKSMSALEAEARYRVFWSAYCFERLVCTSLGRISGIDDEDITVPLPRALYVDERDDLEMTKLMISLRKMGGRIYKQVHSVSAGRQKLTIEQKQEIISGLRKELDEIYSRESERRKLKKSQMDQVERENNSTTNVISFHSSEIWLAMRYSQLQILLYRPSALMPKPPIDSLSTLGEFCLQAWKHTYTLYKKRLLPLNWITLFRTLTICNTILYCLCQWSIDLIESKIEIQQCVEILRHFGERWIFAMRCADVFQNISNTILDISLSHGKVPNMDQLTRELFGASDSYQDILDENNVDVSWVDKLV
# Experiment: PBM E-score (8-mer binding enrichment) (E-score (-0.5 to 0.5)); higher = stronger / more preferred TF binding; most listed sequences are background and not binding sites
# Conditions: protein concentration: 200 nM; construct: GST-full length
# Procedure, shortened: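 Using PURExpress in vitro transcription/translation, GST-tagged yeast transcription factors were made in full-length or DNA-binding-domain form. These were applied at about 100-200 nM to double-stranded universal all-10-mer Agilent arrays, and bound protein was detected with fluorescent anti-GST. Scans were normalised with masliner before the Universal PBM Analysis Suite assigned E-scores to ungapped eight-base words pooled with their reverse complements.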
row,Sequence,PBM E-score
1,ACGCTCGC,-0.078
2,GGAGCTAC,0.172
3,CATATGAA,-0.00067
4,GAGATCTA,-0.158
5,GTACTCGA,-0.163
6,TGTTACAA,-0.106
7,CGGAGAAC,0.0279
8,CAGGGAAG,-0.227
9,TACGCTCA,-0.279
10,GTGATAAA,0.184
11,GCGTCCAA,-0.222
12,CTTCAATA,-0.149
13,TGGCGAAA,-0.0111
14,TAGCACAA,-0.151
15,GTACAGTA,-0.0118
16,AACAGTGA,-0.0602
17,CAGAAAGG,-0.0805
18,TTACGCAA,-0.137
19,AGTCACAG,-0.269
20,CCCCCGCA,0.154
21,AACGCATA,-0.0153
22,CTGTGTTC,-0.133
23,TCCGAAGA,0.3
24,CAATACCC,0.242
25,ACCGACGG,0.42

row,Sequence,PBM E-score
1,CGCAATAG,-0.15
2,CGATGGCA,0.0451
3,CAGGGTCC,-0.152
4,ACGATGTA,-0.168
5,CAGATTAC,0.0255
6,CGATGATA,0.151
7,CATAGCTC,-0.0792
8,CGAGCGTA,0.115
9,ACAGTGGA,-0.0661
10,AAAGATCG,-0.0774
11,CGTCTCAG,-0.114
12,ACCTCTCC,-0.0916
13,CTTAATAC,-0.0621
14,AACTCGAG,-0.178
15,GAAGGGAA,-0.118
16,GAATTTGA,0.125
17,TAAGACTA,-0.238
18,GAGAATCC,0.0729
19,CAAACTTA,-0.0322
20,ATTTTGGG,-0.156
21,CACATACA,-0.251
22,GCTCTGCA,-0.326
23,AAGCTTAA,-0.0031
24,CACCACGG,0.124
25,AACTACCA,-0.153

row,Sequence,PBM E-score
1,GGTCGTCA,-0.0466
2,CTAAACCC,0.233
3,CCAGTTTC,-0.207
4,TTCTCAAA,-0.128
5,CACCCAGG,-0.0359
6,TCCAAGAA,-0.203
7,AAGCTAAG,-0.205
8,CCACGGAG,0.289
9,AGCACTTA,-0.0929
10,ATTAGGTC,0.0516
11,ACCGCCGG,0.414
12,GAATTAAA,-0.0528
13,TAGTACTA,-0.346
14,GTTGTTCA,-0.0698
15,CTACGTTA,0.0142
16,GGTCTCAA,0.18
17,ATTATTAG,-0.0442
18,CCCAACAA,0.0103
19,AGCATGCT,-0.405
20,CGACACAG,0.247
21,CCTAAACC,0.138
22,CTAGATCC,0.141
23,ACGGTGAA,0.316
24,GTCGTCAC,-0.0104
25,GCCTGTGA,-0.117

row,Sequence,PBM E-score
1,ATGTTGCC,0.153
2,GCGTTCAC,0.0264
3,CAAGCCTG,-0.314
4,ACTACAGT,-0.24
5,TCATGTAA,0.0075
6,AAATGCGT,0.08
7,AGCGGCCC,0.255
8,CATAGACA,-0.112
9,ATTTGTAC,-0.154
10,GAGTCTGA,-0.308
11,CATTCCTC,-0.0908
12,GACCCTTA,-0.174
13,GAAACCTA,-0.123
14,AAGATTAA,-0.0554
15,AAGCTACA,-0.214
16,ATGCTTAA,0.0568
17,CATCACGC,0.0618
18,CTGGTATA,-0.0956
19,TATTGCGA,0.112
20,ACCGAGTA,-0.00951
21,GGCTTATA,0.192
22,TCCCGCCA,0.205
23,CTATTTAC,0.109
24,ATTGGGCG,0.0233
25,AATCACGC,-0.1

row,Sequence,PBM E-score
1,GAGCTGAA,-0.27
2,ATATATTG,0.196
3,CAATCCGC,0.117
4,CGAGAGAC,-0.0954
5,CGTCTCAC,-0.119
6,AATGCAAG,-0.116
7,CGTAGGTC,0.108
8,AACATCAA,0.0457
9,GCGAGTGA,-0.143
10,TGGTAAAA,-0.0266
11,ACTAAGAT,0.0515
12,ACTTCTCC,0.103
13,ATAGAGGG,-0.129
14,ATACCTAT,-0.134
15,GTTTTACA,0.1
16,CTCTATTC,-0.0624
17,GTAATGAC,0.00393
18,ATCCACGC,-0.125
19,CACTGCGA,-0.101
20,ACGTGCTA,-0.246
21,CTTCTCAA,-0.188
22,ACCTTTAT,-0.0784
23,GTAAGAGA,-0.0146
24,CTGGGTTC,-0.135
25,AGGAGACA,-0.131

row,Sequence,PBM E-score
1,GCGTACCC,-0.0483
2,CAATTCGC,0.0656
3,GGCGGAGA,0.388
4,GCATCGGC,0.224
5,GTAGGTTA,0.0345
6,GTCTAAGA,-0.0395
7,CCGAAGAC,0.135
8,CGCGTTGA,-0.0617
9,ATCCAGGC,-0.244
10,CTCTAGCC,-0.102
11,GGAAGCCC,0.107
12,CGTAGAGA,-0.241
13,CTCGCCGC,0.0978
14,AACCCGAG,0.182
15,GGTCCCTA,0.011
16,CGATATAC,0.166
17,CTGTCGTA,-0.176
18,GCCCTCAA,-0.177
19,ACCGGAGA,0.344
20,GACGCGTC,-0.0037
21,CGGCTAAA,0.0911
22,AACATGCG,-0.126
23,CCTAACGA,-0.19
24,AAAAAGAT,-0.291
25,CTCCCCGC,0.248

row,Sequence,PBM E-score
1,AGGAAGTA,0.0105
2,AGGATGCG,-0.211
3,ACTAGAAG,-0.0485
4,GTTCCGTA,0.11
5,GTATACCA,-0.00886
6,AAACACTA,-0.139
7,AAAAGGGA,-0.201
8,GAACCAGA,-0.309
9,GGCCCCGA,0.23
10,CAAGTTCC,0.0355
11,AGATAGAG,-0.0692
12,ACTGTAAC,0.0101
13,CAGTTGAA,-0.205
14,ACGCATCA,-0.074
15,AAGTAGCG,0.0894
16,CGGTCAAG,0.0608
17,ATGGCACC,0.145
18,AGTTTTAC,0.0395
19,CGCGTTGC,0.149
20,CTTGACCA,-0.161
21,CGGGTGCC,0.0716
22,GGGGGTCA,-0.125
23,TGTTTGAA,-0.0645
24,AGAATTCG,-0.146
25,ACGTGGTG,0.0902

row,Sequence,PBM E-score
1,AACAGAGG,-0.165
2,ACTCACAC,-0.18
3,GTCCAAAC,-0.103
4,AAATAGAC,-0.105
5,AGAGGTTG,-0.213
6,GTACCATA,-0.0621
7,CGTACGTC,-0.207
8,AGTTCGCG,-0.00572
9,ATAAAGCG,0.236
10,CCGTCCGC,0.292
11,GATGAGAA,-0.244
12,CAGGGTGC,-0.0545
13,AAGCAACA,-0.157
14,CTAGAACC,0.0742
15,ATCCGCAT,0.228
16,AAACTTGT,-0.145
17,CGATCTCA,-0.0469
18,GGGCCGAA,0.175
19,CGGTTAGA,0.0936
20,CCCCGAGG,0.148
21,ACATTGCA,-0.0999
22,ACGTTCTG,-0.235
23,CATGAAGC,0.0101
24,AACGCCCG,0.24
25,ACGCAATA,-0.194

row,Sequence,PBM E-score
1,GATGGTCC,0.145
2,CCAGGACA,-0.134
3,TATGTTGA,-0.0726
4,GACGTCCA,-0.019
5,AGTCAAGG,-0.289
6,ACACTTAC,-0.165
7,GCTCGAAC,-0.229
8,GCGAGGAA,-0.0244
9,GGCTCCAC,-0.156
10,TCGTCCCA,-0.106
11,ATAGCCGA,0.216
12,AACGCAGT,-0.178
13,CTAACAGC,0.117
14,CAGCCCTA,-0.108
15,AATATATA,0.217
16,ATTTGTAA,-0.134
17,GGGTTCAC,0.094
18,CATAGACC,0.135
19,GAGTATCC,0.033
